The values that follow come from the RNAGym collection of RNA variant scans (doi:10.7554/elife.90254).

The source gives no read counts; variants with many changes may rest on few reads.

B1: LINE1-mini (parent)
chain: GGCAGAGCUCAACACAGCGUGGCAAAGUGGCUGUGGCUAGACUGCC

The variants in the data set derive from B1. The data set is described as follows: self-cleavage, relative activity (ratio to wild type); higher = more cleavage; in vitro, sequencing; the parent is a self-cleaving ribozyme.
As for GGCGGAGCUCAAAACAGCGUGGCAAAGUGGCUAUGGCUAGACUGCC [A4G C13A G33A], the self-cleavage turned out to be 0.09.
Turning to GGCGGAGCUCAACGCAGCGUUGCAAAGUGGCUGUGGCUAGACUGCC [A4G A14G G21U], the self-cleavage amounted to 0.35.
The same measure for GGCGGAGCUCAACACGAAGUGGCAAAGUGGCUGUGGCUAGACUGCC [A4G A16G G17A C18A]: 0.
Take GGCGGCGCUCAACACAACGUGGCAAAGUGGGUGUGGCUAGACUGCC [A4G A6C G17A C31G]: the self-cleavage came to 0.01.
With GGCGGAGCUCAACCCAGCUUGGAAAAGUGGCUGAGGCUAGACUGCC [A4G A14C G19U C23A U34A], the self-cleavage worked out at 0.02.
Regarding GGCGGUACUCAACACAGCUUGGCAAAGUGGCUGUGGCUAGCCUGAC [A4G A6U G7A G19U A41C C45A], the self-cleavage turned out to be 0.07.
In the case of GGCGGAGCUCAACACAGCGUGGCAAUGUGGGUGUGGGUAGACUGCC [A4G A26U C31G C37G], the self-cleavage is 0.03.
Under GGCGGGGCUCAACACAGCGUGGCAAAGUGCCUGUGGCUAGACUGCC [A4G A6G G30C] stands 0.04; under GGCGGAGCUAAACACAGAGUGGCAAAGUGGCUGUGGCUAGACUGCC [A4G C10A C18A], 0.02; under GGCCGAGCUCAACACAGCGUGGCAAAGCGGAUGUGGCUAGACUACU [A4C U28C C31A G44A C46U], 0.04.
For the variant GGCGGAGCUCGACACAGCGUGGAAAAGUGGCUGUGGCUAGACUGCC [A4G A11G C23A], the self-cleavage came to 0.02.
The same measure for GGCCGAGCUCAACACAGCGUGGCAAAGUGGCUGUGGCUACACGGCC [A4C G40C U43G]: 0.04; for GGCGGAGCUCCACACAGCGUGGCAAAGUGGCUGUGGCUAGAAUGCC [A4G A11C C42A]: 0.
Take GGCCGAGCUCAACACAGCGUGUCUAAGUGGCUGUGGCUAGACUGCC [A4C G22U A24U]: the self-cleavage worked out at 0.1.
Under GGCGGUGUUCAACACAGCCUGGCAAAGUGGCUGUGGCUAGACUGGC [A4G A6U C8U G19C C45G] stands 0.04; under GGCGGAGCUCCACACAGCGUGGCAAAGUGGCGGUGGCUAGUUUGCC [A4G A11C U32G A41U C42U], 0.03; under GGCGGAGCUUAACACAGCGUGGAAAAGUGUCUGUGGCUAGACUGCC [A4G C10U C23A G30U], 0.34.
On to GGCCGAGCUCAACACAGCGUGGCAAAAUGGCUGUGGCUAGCCUGCC [A4C G27A A41C], for which the self-cleavage was determined as 0.11.
The same measure for GGCCGAGCGCAACACUGCGUGGCAAAGUGGCUGUGGAUAGACUGCC [A4C U9G A16U C37A]: 0.01; for GGCGGGGCUCAACACAGCCUUGCAAAGUGGCUGCGGCUAGACUGCC [A4G A6G G19C G21U U34C]: 0.
Regarding GGCGGAGCUCAACACAGCGUGGCAUAGUGGCUGUUGCUAGACUGCC [A4G A25U G35U], the self-cleavage worked out at 0.32.
On to GGCGGAGCUCGACACAACGUGGCUAAGUGGCUGUGGCUAGACUGCC [A4G A11G G17A A24U], for which the self-cleavage stood at 0.02.
Take GGCCGAGCUCAACACAGCGUGGCAAAGUGGCUGUGUAUAGACUGCC [A4C G36U C37A]: the self-cleavage amounted to 0.07.
The same measure for GGCCGAGCUCAACACAGCGCGGCAAAGAGGCUGUGGCUUGACUGCC [A4C U20C U28A A39U]: 0.04.
GGCCGAGCUCAACACAGCGUGGCAAAGUGGCGGUGGCUAGACUGUC [A4C U32G C45U]: the self-cleavage amounted to 0.06.
In the case of GGCGGGGCUCAACACAGGGUGGCAAAUUGGCUGUGGCUAGACUGCC [A4G A6G C18G G27U], the self-cleavage was 0.03.
The same measure for GGCGGAGAUCAACACAGCGUGGCAAAGUGGCUGUGGCUAGACUGGC [A4G C8A C45G]: 0.19; for GGCGGAGCUCAACACUGCGUGGCAAAUUGGCUGUGGCUAGACUGCC [A4G A16U G27U]: 0.4.
The same measure for GGCGGAGCUCAACGCAGCGUGGCAAAGUGGCUGCGGCUACACUGCC [A4G A14G U34C G40C]: 0.
The same measure for GGCGGAGCUCGACACAGCGUGGCAAAGUGGCUGUGGCUAGACUUCC [A4G A11G G44U]: 0.02; for GGCCGAGCUCAACACAGCGUGGCAAAUUGGCAGUGGCUAGACAGGC [A4C G27U U32A U43A C45G]: 0.02; for GGCGGAGCUCAACACAGCGUGGCUAACUGGCUGUGGCUAGACUGCC [A4G A24U G27C]: 1.77.
Consider GGCGGAGCUUAAGACAGCGUGACAAAGUGGCUGUGGCUAGACUGCU [A4G C10U C13G G22A C46U], for which the self-cleavage turned out to be 0.05.
For the variant GGCGGAGCUCAACACAGCGUGGCGAAGCGGCUGUGGCUAGACUGCC [A4G A24G U28C], the self-cleavage was 1.04.
On to GGCCGAGCUCAACACAGCGUGGCAAAGUGUCUGUGGCAAGACUGCC [A4C G30U U38A], for which the self-cleavage amounted to 0.02.
As for GGCGGGGCUCAACACAGCGUGGCAAAGUGGCUAUUGCUAGAAUGAC [A4G A6G G33A G35U C42A C45A], the self-cleavage was found to be 0.03.
Take GGCGGAGCUCAACAGAGCGUGGCAAAGUGGCUGUGGCUAGACUGCA [A4G C15G C46A]: the self-cleavage came to 0.04.
Under GGCGGAGCUCAGCACAGCGUGGCAAAGUGGCUGUGGCUAGACUGUC [A4G A12G C45U] stands 0.06; under GGCGGAGCUCUACACAGCGUGGCAAAGUGGGGGUGGCUAGACUGCC [A4G A11U C31G U32G], 0.01; under GGCGGAGCUCAACCCAGCGUGGCAAAGUGCCUGUGGCUAGACUGCC [A4G A14C G30C], 0.03.
With GGCGGAGCUCAACACAGCGUGGCAAGGUGGCUGUGGCUAGAAGGCA [A4G A26G C42A U43G C46A], the self-cleavage was 0.04.
Turning to GGCCGAGCUCAACACAGCGUGGCAAAGCGGAUGUGGAUAGACUGCC [A4C U28C C31A C37A], the self-cleavage is 0.09.
The same measure for GGCGGAGCUCACCAUAGCGUGGUAAGGUGGCUGUGGCUAGACUGCC [A4G A12C C15U C23U A26G]: 0.02.
On to GGCGGAGCUCAACACCGCGUGGCAAAGUGGAUGUGUCUAGGCUGCC [A4G A16C C31A G36U A41G], for which the self-cleavage was determined as 0.1.
Under GGCGGAGCUCCACACGGCGUGGCAAAGUGACUGUGGCUAGAAUACC [A4G A11C A16G G30A C42A G44A] stands 0; under GGCGGAGCUCCACAAGGAGUGGCAGAUUGGCUGUGGCUAGACUGCC [A4G A11C C15A A16G C18A A25G G27U], 0.
The same measure for GGCGGAGCUCAUCACAGAGUCGCAAAGUUGCUGUGGCUAGUCUGUC [A4G A12U C18A G21C G29U A41U C45U]: 0.08; for GGCGGAGCUCAACACAGCGUGGCGUAGUGGCUGUGGCUAGACUGCC [A4G A24G A25U]: 0.52.
With GGCGGAGCUCAACCCAGAGUGGCAAAGUGGCUGUGGCUAGACUGCG [A4G A14C C18A C46G], the self-cleavage was 0.06.
Under GGCGGAGCUAAACACUGCGUGGCAAAGUGGCUGUGGCUAGACUGCC [A4G C10A A16U] stands 0.04.
Under GGCGGAGGUCAACAUAGCGUGGCAAAGUGGCUGUGGCUAGACUGCC [A4G C8G C15U] stands 0.04; under GGCGGAGCUCCACACAGCGUGGCAAAGUGGCCGUGGCUAGACGGCC [A4G A11C U32C U43G], 0.01; under GGCGGAGCUCUACACAGGGUGGCAAAGGGGCUGUGGCUAGACUGCC [A4G A11U C18G U28G], 0.03.
Under GGCGGAGCUCAACACAGCGUGGCAUAGCGGUUGUGGCUAGACUGCC [A4G A25U U28C C31U] stands 0.25; under GGCCGAGCUCAACACAGCGUGGCAAAGUCGCUGUGGCUAGACGGUC [A4C G29C U43G C45U], 0.06; under GGCCGAGCGCAACACAGAGUGGCAAAGUCGCUGUGGCUAUACUGGC [A4C U9G C18A G29C G40U C45G], 0.03.
